{"source": "PubChem BioAssay AID686978", "about": "(National Center for Advancing Translational Sciences (NCATS), 2013)", "note": "Screen size: about 420,000 compounds; about 64,000 (15%) were called active. The inconclusive results got no clear call from the source; some entries with a clear call stand among them for comparison. Calls follow the shape of the dose curve; as a rule, active = well fitted inhibition curve with a large enough effect; inconclusive = small, poorly fitted or top-dose-only effect; inactive = flat fitted curve, though single readings scatter. Potencies of inconclusive entries are left out as doubtful fits.", "data": [{"assay": "qHTS for Inhibitors of human tyrosyl-DNA phosphodiesterase 1 (TDP1): qHTS in cells in absence of CPT; also: nearly all actives have a fitted effect of over 55% in size; also: potency is read from the fitted curve at half-maximal effect; tags tell the direction and shape of the fitted curve; as to activity change, negative = growth inhibition: % is scaled to controls: 0 for no effect and ±100 for the full control effect", "conditions": "DT40 Tdp1-/- hTDP1 cells, no CPT, ATP luminescence, 48 h; activity change, negative = growth inhibition: at 46.2 µM (top of the series) unless noted", "outline": "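Compound effects on proliferation are scored in DT40 Tdp1-/-;hTDP1 cells in the absence of CPT. ATP levels (CellTiter-Glo luminescence) are recorded after a ≥48 hr, 37 °C incubation.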", "values": [{"compound": "CC(SCc1nc2sc3c(c2c(=O)[nH]1)CCCC3)C(=O)Nc1ccccn1", "note": "(configuration not stated)", "activity change, negative = growth inhibition": "inactive: -26.1%"}, {"compound": "O=C(Cc1cccc(NC(=O)C2CCCN(C(=O)C3CC3)C2)c1)Nc1cccc(C(=O)N2CCOCC2)c1", "note": "(configuration not stated)", "activity change, negative = growth inhibition": "inactive: 4.54%"}, {"compound": "CCOCCCn1c(=N)c(C(N)=S)cc2c(=O)n3cccc(C)c3nc21", "Potency": "inconclusive [inhibitor, single point]"}, {"compound": "Cc1ccc(NC(=O)CSc2nnc(-c3ccncc3)s2)cc1", "activity change, negative = growth inhibition": "inactive: -27%"}, {"compound": "Cc1ccc(CN2CC(N3CCC(Cc4ccccc4)CC3)CS2(=O)=O)cc1", "note": "(configuration not stated)", "Potency": "inconclusive [inhibitor, single point]"}, {"compound": "O=C(C1CC1)N1CCc2cc(Br)cc(S(=O)(=O)N3CCOCC3)c21", "Potency": "inconclusive [inhibitor, single point]"}, {"compound": "CC(C)C(OC(=O)c1ccccc1)c1nccc2ccccc12", "note": "(configuration not stated)", "Potency": "inconclusive [inhibitor, partial curve]"}, {"compound": "CCOc1ccc(OCCOc2ccc(/C=C/C(=O)O)cc2OCC)cc1", "activity change, negative = growth inhibition": "inactive: 3.13%"}, {"compound": "CC[C@]1(C(=O)OC)[C@H]2C(=O)N(Cc3ccccc3)C(=O)[C@H]2[C@H]2CN=C(SC)N21", "activity change, negative = growth inhibition": "inactive: -16.5%"}, {"compound": "O=C(CN1CCCCC1)Nc1ccccc1Oc1ccccc1", "Potency": "inconclusive [inhibitor, single point]"}, {"compound": "Cc1ccc(-n2nnnc2CNC(=O)c2ccc3c(c2)OCO3)cc1C", "activity change, negative = growth inhibition": "inactive: 4.8%"}, {"compound": "Cc1c(C(=O)N(C)CC2CCCN(C)C2)cnn1-c1nccc(-c2ccco2)n1", "note": "(configuration not stated)", "activity change, negative = growth inhibition": "inactive: 1.24%"}, {"compound": "CC(=O)Nc1ccc(C(=O)N(C)C(C(=O)Nc2ccc(C)cc2)c2ccccn2)cc1", "note": "(configuration not stated)", "Potency": "inconclusive [inhibitor, full curve]"}, {"compound": "O=C(c1ccccc1)n1c(=O)cc[nH]c1=O", "activity change, negative = growth inhibition": "inactive: -4.53%"}, {"compound": "COc1ccc(NS(=O)(=O)c2cccc(C(=O)N3CCCC3)c2)cc1", "activity change, negative = growth inhibition": "inactive: 1.81%"}, {"compound": "CN1CCN(c2ccc(NC(=S)NC(=O)c3cccc4c(Cl)cccc34)cc2)CC1", "Potency": "inconclusive [inhibitor, partial curve, poor fit]"}, {"compound": "CN(C)S(=O)(=O)c1ccc(C(=O)NCc2nnc(SCC(=O)c3ccccc3)o2)cc1", "Potency": "inconclusive [inhibitor, single point]"}, {"compound": "O=C(NCCc1ccccc1)c1ccc2c(c1)OCO2", "activity change, negative = growth inhibition": "inconclusive: -32.3% [inhibitor]"}, {"compound": "Cc1cccc(C(=O)N[C@H](C(=O)Nc2nc3ccc(S(C)(=O)=O)cc3s2)C(C)C)c1", "Potency": "inconclusive [inhibitor, single point]"}, {"compound": "O=C(CCC(C(=O)c1ccccc1)c1ccccc1)c1ccccc1", "note": "(configuration not stated)", "Potency": "inconclusive [inhibitor, single point]"}, {"compound": "COc1ccc(-c2[nH]ncc2-c2csc(C)n2)c(O)c1", "Potency": "inconclusive [inhibitor, partial curve, poor fit]"}, {"compound": "COc1ccc(-c2noc3c2-c2nc(-c4ccccc4)sc2CC3)cc1", "activity change, negative = growth inhibition": "inactive: -17.8%"}, {"compound": "CCOC(=O)C1=C(COC(=O)CC(C)c2ccccc2)NC(=O)NC1C", "note": "(configuration not stated)", "activity change, negative = growth inhibition": "inactive: -21.4%"}, {"compound": "COc1ccc(N2CC(NC(=O)c3ccc4ccccc4c3)CC2=O)cc1OC", "note": "(configuration not stated)", "Potency": "inconclusive [inhibitor, single point]"}, {"compound": "Cc1ccccc1S(=O)(=O)Nc1ncc(C(F)(F)F)cc1Cl", "activity change, negative = growth inhibition": "inactive: -24.4%"}, {"compound": "O=S(=O)(Nc1nc2ccccc2s1)c1ccc(Br)s1", "Potency": "inconclusive [inhibitor, partial curve, poor fit]"}, {"compound": "Cc1cccc(-c2nc3c(c(=O)c4ccccc4n3C)c(=O)n2-c2ccccc2)c1", "activity change, negative = growth inhibition": "inactive: -22.1%"}, {"compound": "O=C(Nc1ccc(Cl)cc1)Nc1ccc(N2CCOCC2)cc1", "Potency": "active: 18.4 µM"}, {"compound": "CCN1CCN(CC(=O)n2c3c(c4ccccc42)CC(C)CC3)CC1", "note": "(configuration not stated)", "Potency": "active: 18.4 µM"}, {"compound": "CC(C)(C)c1ccc(S(=O)(=O)N2CCN(C(=O)C3CCC3)CC2)cc1", "Potency": "active: 18.4 µM"}, {"compound": "O=C(CCn1c(=O)c2sccc2n(Cc2cccc(F)c2)c1=O)NCc1ccc2c(c1)OCO2", "activity change, negative = growth inhibition": "inactive: 0.945%"}, {"compound": "NC(CSC(c1ccccc1)(c1ccccc1)c1cccc2ccccc12)C(=O)O", "note": "(configuration not stated)", "Potency": "inconclusive [inhibitor, single point]"}, {"compound": "Cc1ccc(S(=O)(=O)c2nc(-c3ccco3)oc2SCC(=O)Nc2ccc(F)cc2)cc1", "Potency": "inconclusive [inhibitor, single point]"}, {"compound": "Cc1ccc(S(=O)(=O)N2C[C@H]3[C@H]4C(=O)N(Cc5ccccc5)C(=O)[C@H]4CC(=O)[C@H]3[C@@H]2c2ccccc2Cl)cc1", "Potency": "inconclusive [inhibitor, single point]"}, {"compound": "O=C(CNc1cccc(S(=O)(=O)N2CCCCCC2)c1)Nc1cccc([N+](=O)[O-])c1", "Potency": "active: 23.1 µM"}, {"compound": "COc1ccc(C2CC(c3ccccc3)=NN2c2ccc(S(N)(=O)=O)cc2)cc1OC", "note": "(configuration not stated)", "Potency": "inconclusive [inhibitor, single point]"}, {"compound": "CCOC(=O)c1ccccc1-c1cn2cc(Cl)ccc2n1", "Potency": "inconclusive [inhibitor, single point]"}]}]}
